Data reported in PubChem BioAssay AID588855 (National Center for Advancing Translational Sciences (NCATS), 2011).
Values joined by “and” are separate entries in the source; they are usually repeats but may differ in a detail not shown here. Equal values may be shown once. Among all 410,000 compounds or so, about 5,000 (1.2%) were called active. The inconclusive results got no clear call from the source; some entries with a clear call stand among them for comparison. The call rests on the fitted dose curve; in most records, active means well fitted inhibition curve with a large enough effect; inconclusive means small, poorly fitted or top-dose-only effect; inactive means no such curve, though single readings can be large or run the other way. Potencies beside an inconclusive call are fits to weak or partial responses and may not hold up.

Experiment: qHTS for Inhibitors of TGF-b; further: nearly all actives have a fitted effect of over 65% in size
Details: HepG2 CAGA-GFP TGF-b/SMAD3 reporter, GFP fluorescence, 18 h, TGF-beta stimulated, 500 pg/mL final; series mostly up to 46.1 µM; activity, negative = inhibition: at the top concentration
Method in brief: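 Inhibition was scored as loss of TGF-beta-induced (500 pg/mL final, 18 hours, 37 degrees C) GFP in HEPG2 cells carrying a CAGA-GFP reporter, in DMEM with 1% FBS. Well GFP was summed per cell; Activity was normalised to unstimulated and stimulated DMSO wells, then concentration-response fitting.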
On the % scale 0 is the no-effect control and ±100 the full control effect; potency means the concentration at half of the fitted maximal effect; tags describe the fitted curve by direction and shape.

SMILES	Potency	activity, negative = inhibition
c1ccc(C(c2ccccc2)N2CCN(c3nc4ccccc4n4cnnc34)CC2)cc1	inconclusive: 12.6 µM [inhibitor, partial curve]	–
COc1ccc(/C=N/NC(=O)c2csc(-n3nc(C)cc3C(F)(F)F)n2)cc1	–	inactive: 27.1%
CCc1cccc2c1Sc1ccccc1CC2N1CCNCC1 (configuration not stated)	inconclusive: 35.5 µM [inhibitor, single point]	–
Cc1ccc(O)c(NC(=O)CCS(=O)(=O)c2nc(-c3cccs3)cc(C(F)(F)F)n2)c1	active: 10 µM	–
CCCOc1ccc(C2C(C#N)=C(N)Oc3nc[nH]c(=O)c32)cc1OC (configuration not stated)	inconclusive: 35.5 µM [inhibitor, single point]	–
Cc1cccc(-n2cnc3cc(C(=O)NCc4ccccc4Cl)ccc32)c1	inconclusive: 35.5 µM [inhibitor, single point]	–
COc1ccccc1NC(=O)c1cc2c(=O)n(Cc3cccs3)ccc2nc1C	inconclusive: 0.112 µM [inhibitor, full curve, poor fit]	–
NC(COCc1ccccc1)c1csc(Nc2nncc3ccccc23)n1 (configuration not stated)	inconclusive: 35.5 µM [inhibitor, single point]	–
N#CC(C#N)=Cc1cccn1-c1ccc(C(=O)O)cc1	inconclusive: 6.31 µM [inhibitor, single point]	–
COc1ccc(-c2cc(NC=O)c3ncc(-c4cnn(C)c4)n3c2)cc1	inconclusive: 10 µM [inhibitor, partial curve]	–
COc1ccccc1-c1nnc(C2CCN(C(=O)c3ccccc3C)CC2)o1	inconclusive: 0.708 µM [inhibitor, full curve, poor fit]	–
Oc1ccc(Cl)cc1/C=N/c1nccs1	inconclusive: 35.5 µM [inhibitor, single point]	–
COc1ccc(N(CC(=O)Nc2cc(OC)cc(OC)c2)S(=O)(=O)c2c(C)noc2C)cc1	inconclusive: 10 µM [inhibitor, partial curve, poor fit]	–
COc1ccc(N2CCN(c3ncnc4scc(-c5ccccc5)c34)CC2)cc1	inconclusive: 35.5 µM [inhibitor, single point]	–
Cc1cc2c(cc1S(=O)(=O)Nc1ccc(C(C)C)cc1)OCCN2C	inconclusive: 35.5 µM [inhibitor, single point]	–
Cc1oc(-c2ccccc2F)nc1Cn1c(SCc2cccc(C(F)(F)F)c2)nc2ccncc21	inconclusive: 35.5 µM [inhibitor, single point]	–
Cc1ccccc1C(=O)c1cccn1CC(=O)NCCCN1CCCCC1	–	inactive: 0.396%
COC(=O)c1ccc(NC(=O)CO/N=C2\CCCc3nonc32)cc1	inconclusive: 11.2 µM [inhibitor, single point]	–
CCc1ccccc1NC(=O)c1cc(-c2ccc(Cl)s2)nc2ccccc12	–	inactive: -0.978%
C=CC[C@@H](CC(=O)N(CCO)Cc1ccccc1)C(=O)N[C@H](COC(=O)[C@@H](CC=C)CC(=O)OC(C)(C)C)Cc1ccccc1	inconclusive: 35.5 µM [inhibitor, partial curve, poor fit]	–
O=C(Nc1ccccc1F)c1cnc(N2CCCCC2)c2ccccc12	–	inactive: -4.44%
NS(=O)(=O)c1cccnc1Nc1cccc(C(F)(F)F)c1	inconclusive: 12.6 µM [inhibitor, single point]	–
CCN(CC)c1ccc(C(=O)NN)cc1	–	inactive: 1.97%

SMILES	Potency	activity, negative = inhibition
CCOc1ccc(-n2c(C)c(C(C)=O)c3cc(O)ccc32)cc1	–	inactive: -10.5%
COc1ccccc1N1CCN(CCCCCCOc2ccc(F)cc2)CC1	inconclusive: 20 µM [inhibitor, single point]	–
CN(C)c1ccc(C(O)c2cc3ccccc3s2)cc1 (configuration not stated)	–	inactive: -2.32%
Cc1cccc(OCCC(=O)Nc2ccc(C)c(S(=O)(=O)N3CCCCC3)c2)c1	inconclusive: 35.5 µM [inhibitor, single point]	–
Cc1cc(Cl)c(S(=O)(=O)Nc2ccon2)cc1OCC(=O)NC1CCCCC1	inconclusive: 35.5 µM [inhibitor, single point]	–
CN(CCOc1ccccc1)C(=O)c1cc(S(=O)(=O)N2CCCCC2)ccc1Cl	–	inactive: -16%
CCc1c(C2(O)CCCCC2)[nH]c2ccc(C#N)cc12	inconclusive: 10 µM [inhibitor, partial curve, poor fit]	–
Cn1c(-c2c(N)n(CCCc3ccccc3)c3nc4ccccc4nc23)nc2ccccc21	inconclusive: 7.08 µM [inhibitor, partial curve, poor fit]	–
COc1ccc(NS(=O)(=O)c2cc(NC(=O)C(CC(C)C)NC(N)=O)ccc2N2CCOCC2)cc1 (configuration not stated)	–	inactive: 3.71%
Cc1ccccc1CN1CCN(S(=O)(=O)c2ccc(Cl)s2)CC1	inconclusive: 35.5 µM [inhibitor, single point]	–
O=C1CCN(CCc2ccccc2)CCN1CCSc1ccccc1	inconclusive: 7.94 µM [inhibitor, partial curve, poor fit] and inconclusive: 12.6 µM [inhibitor, single point]	–
O=C1CCCN1CCCNc1nc(NCc2cccs2)nc2ccsc12	active: 10 µM	–
O=C(COC(=O)/C=C/c1ccco1)Nc1cccc([N+](=O)[O-])c1	–	inactive: -9.34%
CCCCN1Cc2cc(C(=O)c3cc(F)ccc3O)cnc2NC1=O	–	inactive: 15.5%
CC1(C)C2CCC(C2)C1(C)NC(=O)CN1CCN(Cc2ccccc2)CC1 (configuration not stated)	inconclusive: 2.82 µM [inhibitor, partial curve, poor fit]	–
Cc1nc2ccccn2c1C(=O)N=Nc1c(O)n(CCC(C)C)c2ccccc12	–	inactive: 0.861%
CCOC(CNCc1cc(C)c2[nH]c3ccccc3c2c1C)OCC	inconclusive: 35.5 µM [inhibitor, single point]	–
O=C1C(Cl)=C(N2CCC(C(=O)O)CC2)C(=O)c2ccccc21	inconclusive: 31.6 µM [inhibitor, single point]	–
CC[N+](C)(C)CCN(Cc1ccc(Cl)cc1)c1ccccn1	–	inactive: 5.22%
COc1ccccc1NS(=O)(=O)c1ccc(-c2cnc(C3CC3)o2)cc1	active: 11.2 µM	–
O=C1Nc2ccccc2/C1=C\C(=O)c1ccccc1	inconclusive: 35.5 µM [inhibitor, single point]	–
Cc1ccc(C(=O)N/C(=C\c2ccco2)C(=O)NCc2cccnc2)cc1	–	inactive: -5.6%
O=C(CCS(=O)(=O)c1ccc2c(c1)NC(=O)CO2)NCCc1ccccc1	inconclusive: 28.2 µM [inhibitor, single point]	–

SMILES	Potency	activity, negative = inhibition
CC(=O)c1nn(-c2cccc(C(F)(F)F)c2)c(=O)[nH]c1=O	inconclusive: 10 µM [inhibitor, partial curve, poor fit]	–
O=c1c(O)c(-c2ccccc2)oc2ccccc12	inconclusive: 28.2 µM [inhibitor, single point]	–
CCN(Cc1ccccc1)C(c1ccccn1)c1nnnn1C1CCCCC1 (configuration not stated)	inconclusive: 14.1 µM [inhibitor, single point]	–
O=C(CCl)N1CCN(S(=O)(=O)c2ccc3c(c2)OCCCO3)CC1	inconclusive: 20 µM [inhibitor, single point]	–
Nn1c(Cc2cccc3ccccc23)nnc1SCn1nnc2ccccc2c1=O	inconclusive: 22.4 µM [inhibitor, single point]	–
Cn1c2ccccc2c(=O)c2ccc(NCCc3cccs3)cc21	inconclusive: 7.08 µM [inhibitor, partial curve, poor fit]	–
COc1ccc(-c2c([C@H]3[C@H]4C=CC[C@@H](C)[C@@H]4C(=O)N3Cc3ccccc3)ccc3ccccc23)cc1	inconclusive: 25.1 µM [inhibitor, single point]	–
CCn1cc(C(=O)OCC(=O)Nc2cc(Cl)ccc2C)c(=O)c2ccc(C)nc21	–	inactive: -7.94%
Cc1ccc(NC(=O)C2CCN(S(=O)(=O)c3cccc4nsnc34)CC2)cc1	inconclusive: 15.8 µM [inhibitor, partial curve, poor fit]	–
Cc1cc(N2CCN(C(=O)c3ccoc3)CC2)n2nc(-c3ccccc3)cc2n1	–	inactive: -18.2%
CCCCOc1ccc(C2C(=O)N(C3CCCCC3)CC(=O)N2C2CCCCC2)cc1 (configuration not stated)	–	inactive: -5.94%
CC1CCN(S(=O)(=O)c2ccc3nc(NCc4ccc(N(C)C)cc4)ccc3c2)CC1	inconclusive: 0.708 µM [inhibitor, full curve, poor fit]	–
CC(=O)Nc1ccc(N2CCCCC2)c(C(=O)Nc2cccc(C)c2)c1	inconclusive: 15.8 µM [inhibitor, single point]	–
COc1ccc(N2CCN(C(=O)c3ccccc3F)CC2)c([N+](=O)[O-])c1	inconclusive: 11.2 µM [inhibitor, partial curve, poor fit]	–
C#CCOCCOCCOCCNc1nc(N2CCN(C(=O)[C@H]([C@@H](C)CC)n3cc(CCCN=C(N)N)nn3)CC2)nc(N2CCN(C(=O)[C@H](C)n3cc(CCCN=C(N)N)nn3)CC2)n1	inconclusive: 35.5 µM [inhibitor, single point]	–
Cc1ccc(C)c(-n2c(-c3cccnc3)n[nH]c2=S)c1	–	inactive: 4.02%
Cc1ccccc1OCC(=O)Nc1nc(C)c(C(=O)N(C)C)s1	inconclusive: 14.1 µM [inhibitor, single point]	–
Cc1cc(F)ccc1-c1cc(C(=O)Nc2ccc(F)cc2)[nH]n1	–	inactive: -2.42%
CCN(C(=O)Cn1nc(C)n2c(cc3cc(C)ccc32)c1=O)c1ccccc1	–	inactive: -5.36%
Cc1ccc(C)c(N2CCN(C(=O)C3CCC(CNS(=O)(=O)c4cccs4)CC3)CC2)c1 (configuration not stated)	inconclusive: 35.5 µM [inhibitor, single point]	–
O=C(Cn1nc(Cc2cccnc2)c2ccccc2c1=O)N1CCN(c2ccccc2F)CC1	inconclusive: 35.5 µM [inhibitor, single point]	–
